Measurements: publication PMC8424649
No constants are given. Whether binding was seen depends on the method and setting. Binding seen in cells or lysates may run through a third protein. Some results given as binding are weak or reduced against the parent protein; the word gives no strength.

Amino acid sequences for entries named in this document (tags omitted). A change or cut given only in a name is not applied to a line headed by its entry.
UniProt Q9Y2M0: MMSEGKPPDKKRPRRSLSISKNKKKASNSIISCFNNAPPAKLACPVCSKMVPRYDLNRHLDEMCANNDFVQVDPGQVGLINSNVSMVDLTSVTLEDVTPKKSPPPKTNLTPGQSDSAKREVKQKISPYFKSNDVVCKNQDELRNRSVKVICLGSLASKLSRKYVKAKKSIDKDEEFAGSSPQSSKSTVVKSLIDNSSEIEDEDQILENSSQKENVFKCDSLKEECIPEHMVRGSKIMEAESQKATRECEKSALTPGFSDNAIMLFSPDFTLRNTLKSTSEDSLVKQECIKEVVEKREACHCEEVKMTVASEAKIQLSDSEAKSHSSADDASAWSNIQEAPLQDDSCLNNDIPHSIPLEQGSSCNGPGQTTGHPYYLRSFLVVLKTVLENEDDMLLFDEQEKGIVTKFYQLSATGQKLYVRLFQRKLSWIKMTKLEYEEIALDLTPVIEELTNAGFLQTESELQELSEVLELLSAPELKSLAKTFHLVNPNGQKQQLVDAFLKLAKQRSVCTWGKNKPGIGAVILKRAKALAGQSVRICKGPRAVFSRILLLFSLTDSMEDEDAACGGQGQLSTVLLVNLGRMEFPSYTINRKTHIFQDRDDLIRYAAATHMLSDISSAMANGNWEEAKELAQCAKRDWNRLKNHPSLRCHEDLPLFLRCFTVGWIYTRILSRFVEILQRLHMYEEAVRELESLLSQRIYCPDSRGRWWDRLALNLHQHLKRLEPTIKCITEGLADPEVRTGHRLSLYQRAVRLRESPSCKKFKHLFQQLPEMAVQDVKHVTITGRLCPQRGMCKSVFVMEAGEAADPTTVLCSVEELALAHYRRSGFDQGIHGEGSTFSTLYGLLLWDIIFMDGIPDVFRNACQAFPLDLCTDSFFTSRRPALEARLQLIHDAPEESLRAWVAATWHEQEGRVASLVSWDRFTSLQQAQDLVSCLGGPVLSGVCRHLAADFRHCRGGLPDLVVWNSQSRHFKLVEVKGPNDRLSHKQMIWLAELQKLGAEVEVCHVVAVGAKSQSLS
UniProt P40692: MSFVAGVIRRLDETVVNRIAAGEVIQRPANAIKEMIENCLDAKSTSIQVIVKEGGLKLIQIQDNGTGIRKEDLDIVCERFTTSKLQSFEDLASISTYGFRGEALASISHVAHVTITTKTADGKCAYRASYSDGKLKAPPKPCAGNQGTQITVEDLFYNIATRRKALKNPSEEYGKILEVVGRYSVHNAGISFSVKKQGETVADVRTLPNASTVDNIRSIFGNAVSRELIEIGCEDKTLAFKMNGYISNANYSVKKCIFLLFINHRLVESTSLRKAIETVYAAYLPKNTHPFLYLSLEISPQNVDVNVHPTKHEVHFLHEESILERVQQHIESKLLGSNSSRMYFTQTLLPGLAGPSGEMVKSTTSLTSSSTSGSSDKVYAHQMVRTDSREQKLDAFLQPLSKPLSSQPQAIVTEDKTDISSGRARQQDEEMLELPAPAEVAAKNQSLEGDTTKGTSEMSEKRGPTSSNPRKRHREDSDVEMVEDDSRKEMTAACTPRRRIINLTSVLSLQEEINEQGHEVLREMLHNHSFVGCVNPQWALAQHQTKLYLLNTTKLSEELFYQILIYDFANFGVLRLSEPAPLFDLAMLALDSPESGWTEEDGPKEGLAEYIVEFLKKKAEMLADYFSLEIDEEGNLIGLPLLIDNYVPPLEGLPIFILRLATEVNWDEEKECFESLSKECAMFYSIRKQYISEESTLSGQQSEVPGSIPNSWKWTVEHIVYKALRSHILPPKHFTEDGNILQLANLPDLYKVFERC
UniProt P20585: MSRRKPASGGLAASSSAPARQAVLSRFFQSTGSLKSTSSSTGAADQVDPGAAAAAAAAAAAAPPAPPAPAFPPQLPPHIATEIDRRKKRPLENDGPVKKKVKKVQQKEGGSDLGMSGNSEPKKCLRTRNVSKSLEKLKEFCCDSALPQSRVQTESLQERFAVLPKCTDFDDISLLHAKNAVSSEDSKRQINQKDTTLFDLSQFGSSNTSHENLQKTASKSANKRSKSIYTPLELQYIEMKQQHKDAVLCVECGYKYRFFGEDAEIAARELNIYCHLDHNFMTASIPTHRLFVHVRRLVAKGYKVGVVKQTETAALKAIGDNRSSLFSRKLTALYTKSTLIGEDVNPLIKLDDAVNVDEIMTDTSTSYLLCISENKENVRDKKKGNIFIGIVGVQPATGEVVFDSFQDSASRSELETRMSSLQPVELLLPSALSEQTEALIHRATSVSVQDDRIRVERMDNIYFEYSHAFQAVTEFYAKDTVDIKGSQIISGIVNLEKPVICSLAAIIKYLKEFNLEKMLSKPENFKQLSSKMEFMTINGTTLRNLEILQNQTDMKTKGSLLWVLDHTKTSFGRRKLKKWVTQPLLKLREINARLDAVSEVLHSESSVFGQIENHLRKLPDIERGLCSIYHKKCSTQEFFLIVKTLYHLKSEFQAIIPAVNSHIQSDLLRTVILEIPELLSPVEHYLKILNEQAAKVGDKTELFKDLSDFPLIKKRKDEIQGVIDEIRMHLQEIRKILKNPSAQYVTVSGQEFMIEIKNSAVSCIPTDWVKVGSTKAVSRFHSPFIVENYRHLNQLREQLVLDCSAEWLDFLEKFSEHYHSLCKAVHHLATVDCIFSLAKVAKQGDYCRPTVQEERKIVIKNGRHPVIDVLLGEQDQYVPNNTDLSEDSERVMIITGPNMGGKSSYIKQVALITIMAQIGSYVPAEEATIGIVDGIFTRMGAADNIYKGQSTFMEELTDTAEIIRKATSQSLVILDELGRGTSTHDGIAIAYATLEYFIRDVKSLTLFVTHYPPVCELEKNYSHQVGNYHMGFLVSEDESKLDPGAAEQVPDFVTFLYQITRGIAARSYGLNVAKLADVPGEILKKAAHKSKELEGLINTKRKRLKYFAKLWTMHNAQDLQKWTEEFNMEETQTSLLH
UniProt Q9NVI1: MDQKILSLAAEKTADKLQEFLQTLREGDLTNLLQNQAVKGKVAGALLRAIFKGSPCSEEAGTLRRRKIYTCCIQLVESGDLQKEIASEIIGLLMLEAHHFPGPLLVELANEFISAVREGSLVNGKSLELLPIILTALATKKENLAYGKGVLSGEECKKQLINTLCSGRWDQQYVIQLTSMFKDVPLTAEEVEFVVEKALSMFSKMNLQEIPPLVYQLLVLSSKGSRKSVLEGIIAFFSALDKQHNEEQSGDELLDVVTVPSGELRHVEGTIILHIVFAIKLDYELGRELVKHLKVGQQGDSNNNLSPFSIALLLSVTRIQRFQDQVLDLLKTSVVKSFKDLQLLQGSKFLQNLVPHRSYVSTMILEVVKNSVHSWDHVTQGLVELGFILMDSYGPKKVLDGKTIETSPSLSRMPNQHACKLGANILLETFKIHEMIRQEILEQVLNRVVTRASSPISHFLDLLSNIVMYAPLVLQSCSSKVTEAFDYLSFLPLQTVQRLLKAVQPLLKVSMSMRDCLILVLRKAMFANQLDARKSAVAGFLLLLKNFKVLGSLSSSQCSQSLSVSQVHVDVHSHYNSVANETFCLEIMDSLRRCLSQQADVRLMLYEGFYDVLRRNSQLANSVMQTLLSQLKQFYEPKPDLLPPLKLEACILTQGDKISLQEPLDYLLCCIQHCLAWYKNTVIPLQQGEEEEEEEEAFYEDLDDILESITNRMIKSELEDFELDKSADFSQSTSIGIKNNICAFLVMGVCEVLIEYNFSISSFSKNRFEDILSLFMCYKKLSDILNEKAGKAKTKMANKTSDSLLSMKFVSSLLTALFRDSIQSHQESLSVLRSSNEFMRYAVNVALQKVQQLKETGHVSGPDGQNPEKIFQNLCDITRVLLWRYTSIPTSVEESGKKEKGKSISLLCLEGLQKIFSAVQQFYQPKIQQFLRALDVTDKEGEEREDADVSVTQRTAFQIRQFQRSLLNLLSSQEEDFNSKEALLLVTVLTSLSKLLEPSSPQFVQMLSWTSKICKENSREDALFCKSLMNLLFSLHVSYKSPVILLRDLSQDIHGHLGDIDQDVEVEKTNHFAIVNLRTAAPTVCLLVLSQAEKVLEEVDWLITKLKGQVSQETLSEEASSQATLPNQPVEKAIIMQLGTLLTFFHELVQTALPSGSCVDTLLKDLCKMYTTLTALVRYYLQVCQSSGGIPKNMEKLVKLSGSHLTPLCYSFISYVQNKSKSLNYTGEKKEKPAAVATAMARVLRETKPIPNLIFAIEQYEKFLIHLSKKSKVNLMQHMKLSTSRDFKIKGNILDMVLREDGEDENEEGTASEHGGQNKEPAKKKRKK
UniProt P52701: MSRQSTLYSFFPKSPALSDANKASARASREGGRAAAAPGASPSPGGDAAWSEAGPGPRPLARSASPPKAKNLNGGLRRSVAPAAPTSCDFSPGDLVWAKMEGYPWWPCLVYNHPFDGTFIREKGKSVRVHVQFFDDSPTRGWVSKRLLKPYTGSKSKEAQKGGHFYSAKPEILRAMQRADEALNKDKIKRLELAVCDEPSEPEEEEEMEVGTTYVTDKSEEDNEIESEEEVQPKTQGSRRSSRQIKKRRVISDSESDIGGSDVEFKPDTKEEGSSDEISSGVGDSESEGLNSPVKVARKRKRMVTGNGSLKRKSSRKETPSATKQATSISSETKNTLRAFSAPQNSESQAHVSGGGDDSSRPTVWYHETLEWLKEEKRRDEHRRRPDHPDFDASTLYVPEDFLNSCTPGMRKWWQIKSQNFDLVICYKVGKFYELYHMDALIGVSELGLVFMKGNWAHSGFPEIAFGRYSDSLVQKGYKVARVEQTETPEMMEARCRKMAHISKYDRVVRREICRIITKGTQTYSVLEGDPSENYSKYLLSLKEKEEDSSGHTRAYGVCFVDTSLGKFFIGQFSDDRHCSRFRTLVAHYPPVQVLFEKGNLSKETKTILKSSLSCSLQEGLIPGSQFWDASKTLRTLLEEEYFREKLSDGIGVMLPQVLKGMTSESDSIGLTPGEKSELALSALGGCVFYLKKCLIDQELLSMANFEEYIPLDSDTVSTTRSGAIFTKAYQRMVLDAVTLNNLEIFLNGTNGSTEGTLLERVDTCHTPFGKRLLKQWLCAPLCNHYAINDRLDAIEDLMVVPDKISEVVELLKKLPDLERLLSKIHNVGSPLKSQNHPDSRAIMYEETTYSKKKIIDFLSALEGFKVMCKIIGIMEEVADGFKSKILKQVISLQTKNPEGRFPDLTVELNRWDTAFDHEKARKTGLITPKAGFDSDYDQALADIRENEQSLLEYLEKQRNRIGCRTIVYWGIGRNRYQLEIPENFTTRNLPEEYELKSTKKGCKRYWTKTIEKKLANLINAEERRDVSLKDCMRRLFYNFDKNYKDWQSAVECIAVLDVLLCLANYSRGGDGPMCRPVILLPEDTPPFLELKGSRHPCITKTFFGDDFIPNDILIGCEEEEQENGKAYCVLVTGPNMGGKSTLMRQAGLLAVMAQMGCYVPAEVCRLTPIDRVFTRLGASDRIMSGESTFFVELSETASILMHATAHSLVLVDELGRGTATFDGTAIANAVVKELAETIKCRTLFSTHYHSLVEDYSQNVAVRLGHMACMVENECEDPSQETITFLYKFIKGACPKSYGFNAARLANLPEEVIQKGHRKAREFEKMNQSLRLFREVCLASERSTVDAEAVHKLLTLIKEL
UniProt Q9JK91: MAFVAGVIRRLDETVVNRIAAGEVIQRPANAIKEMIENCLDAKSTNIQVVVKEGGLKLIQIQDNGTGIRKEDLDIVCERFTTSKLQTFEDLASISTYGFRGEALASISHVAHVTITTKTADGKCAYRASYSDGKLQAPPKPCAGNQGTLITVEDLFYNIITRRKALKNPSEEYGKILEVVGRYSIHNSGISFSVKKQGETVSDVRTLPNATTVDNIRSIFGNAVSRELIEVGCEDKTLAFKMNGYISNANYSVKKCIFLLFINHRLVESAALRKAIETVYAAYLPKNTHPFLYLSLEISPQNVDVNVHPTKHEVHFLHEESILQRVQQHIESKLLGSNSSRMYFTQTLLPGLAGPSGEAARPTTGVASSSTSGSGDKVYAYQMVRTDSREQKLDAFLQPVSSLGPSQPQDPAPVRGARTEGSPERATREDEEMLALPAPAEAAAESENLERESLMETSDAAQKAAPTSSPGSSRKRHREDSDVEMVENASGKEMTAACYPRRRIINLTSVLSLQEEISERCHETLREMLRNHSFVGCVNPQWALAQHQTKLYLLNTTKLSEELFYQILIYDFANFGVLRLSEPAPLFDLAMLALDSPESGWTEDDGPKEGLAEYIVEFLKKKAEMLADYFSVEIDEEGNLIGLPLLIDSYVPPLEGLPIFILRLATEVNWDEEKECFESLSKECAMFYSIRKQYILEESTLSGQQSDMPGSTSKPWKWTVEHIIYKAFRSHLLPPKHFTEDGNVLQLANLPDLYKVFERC

What was measured:
[1] = target: FAN1 (endogenous, human) (human (endogenous in HD iPSCs, lymphoblastoid cells, MSNs)) (UniProt Q9Y2M0); experiment: cross-linking; xIP-MS: endogenous FAN1 from lymphoblastoid cell lysate with sheep FAN1 antibody and protein G magnetic beads, on-bead cross-linking with 1 mM BS3 d0/d12, 30 min, 37°C, mass spectrometry (xQuest/xProphet)
[2] = target: myc-tagged FAN1^FL (human) (UniProt Q9Y2M0); experiment: cross-linking; xIP-MS: myc-FAN1 from HEK293T lysate on anti-c-myc magnetic beads, on-bead cross-linking with 1 mM BS3 d0/d12, 30 min, 37°C, mass spectrometry (xQuest/xProphet)
[3] = target: GFP-FAN1, full-length FAN1 (FAN1^FL) (human) (UniProt Q9Y2M0); experiment: co-IP; GFP-Trap beads on extracts of U2OS cells expressing GFP-FAN1 constructs; endogenous partners detected by blot; IP buffer 20 mM Tris pH 7.4, 150 mM NaCl, 1 mM EDTA, 1% Triton X-100, Benzonase
[4] = target: MLH1 (endogenous, human) (human (endogenous in iPSCs, lymphoblastoid cells, U2OS, HEK293T, MSNs, HeLa)) (UniProt P40692); experiment: co-IP; peptide competition: synthetic FAN1 60-mer peptide (15 μM in Figure 4H) added to HeLa nuclear extract before the anti-MLH1 IP; read-out MSH3 in the IP; only the binder purified
[5] = target: MLH1 (endogenous, human) (human (endogenous in iPSCs, lymphoblastoid cells, U2OS, HEK293T, MSNs, HeLa)) (UniProt P40692); experiment: co-IP; MLH1 antibody with protein G magnetic beads on extracts of U2OS cells (FAN1−/−, FAN1^FL, FAN1^1–349); IP buffer with Benzonase
[6] = target: FAN1 (endogenous, human) (human (endogenous in HD iPSCs, lymphoblastoid cells, MSNs)) (UniProt Q9Y2M0); experiment: co-IP; endogenous proteins in extracts of HD iPSCs (125 CAG); FAN1 sheep polyclonal or MLH1 monoclonal antibody with protein G magnetic beads; IP buffer 20 mM Tris pH 7.4, 150 mM NaCl, 1 mM EDTA, 1% Triton X-100, Benzonase
[7] = target: T1, FAN1 (endogenous, mouse) (mouse (endogenous in cortex of zQ175 and R6/2 mice)) (UniProt Q69ZT1); experiment: co-IP; endogenous proteins in cortical extracts of zQ175 (6 months) and R6/2 (12 weeks) mice; homogenized in modified RIPA buffer with Benzonase, diluted 1 to 10 with IP buffer
T1 sequence: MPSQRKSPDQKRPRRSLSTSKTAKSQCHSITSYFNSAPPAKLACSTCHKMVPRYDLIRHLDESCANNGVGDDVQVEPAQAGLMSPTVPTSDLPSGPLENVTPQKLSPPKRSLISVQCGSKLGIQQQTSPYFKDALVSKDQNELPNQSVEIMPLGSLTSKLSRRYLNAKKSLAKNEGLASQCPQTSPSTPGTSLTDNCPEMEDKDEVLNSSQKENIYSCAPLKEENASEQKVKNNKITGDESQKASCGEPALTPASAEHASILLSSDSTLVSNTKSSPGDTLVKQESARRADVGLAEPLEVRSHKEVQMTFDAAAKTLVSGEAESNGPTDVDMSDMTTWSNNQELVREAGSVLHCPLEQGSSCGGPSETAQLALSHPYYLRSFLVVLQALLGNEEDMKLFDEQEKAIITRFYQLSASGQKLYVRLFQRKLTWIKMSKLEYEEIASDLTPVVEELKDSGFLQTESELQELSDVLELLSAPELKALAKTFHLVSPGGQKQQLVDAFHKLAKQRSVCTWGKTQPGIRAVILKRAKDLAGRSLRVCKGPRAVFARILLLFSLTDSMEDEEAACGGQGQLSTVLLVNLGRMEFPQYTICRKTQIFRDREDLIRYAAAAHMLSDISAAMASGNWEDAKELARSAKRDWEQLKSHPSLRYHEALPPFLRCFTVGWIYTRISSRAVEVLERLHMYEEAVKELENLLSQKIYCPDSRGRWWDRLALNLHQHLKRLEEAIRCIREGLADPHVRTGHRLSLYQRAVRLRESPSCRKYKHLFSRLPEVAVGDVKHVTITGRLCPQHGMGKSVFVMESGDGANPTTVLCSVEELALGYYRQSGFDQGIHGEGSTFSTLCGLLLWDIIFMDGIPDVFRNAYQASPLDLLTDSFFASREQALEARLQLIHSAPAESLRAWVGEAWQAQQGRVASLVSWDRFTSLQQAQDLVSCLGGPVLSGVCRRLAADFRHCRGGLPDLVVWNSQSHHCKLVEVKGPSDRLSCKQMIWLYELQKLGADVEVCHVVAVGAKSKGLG

[8] = target: MLH1 (endogenous, human) (human (endogenous in iPSCs, lymphoblastoid cells, U2OS, HEK293T, MSNs, HeLa)) (UniProt P40692); experiment: co-IP; endogenous proteins in extracts of HD iPSCs (125 CAG); FAN1 sheep polyclonal or MLH1 monoclonal antibody with protein G magnetic beads; IP buffer 20 mM Tris pH 7.4, 150 mM NaCl, 1 mM EDTA, 1% Triton X-100, Benzonase
[9] = target: MSH3 (endogenous, human) (human (endogenous in iPSCs, U2OS, MSNs, HeLa)) (UniProt P20585); experiment: co-IP; MSH3 antibody with protein G magnetic beads on extracts of U2OS FAN1−/− and FAN1^FL cells; IP buffer with Benzonase

FANCI (endogenous, human) (from UniProt Q9NVI1 1-1328)
binding [1]: binds | binding [2]: binds

MSH6 (endogenous, human) (from UniProt P52701 1-1360)
binding [3]: no binding

FAN1 60-mer wild-type peptide (amino acids 118-177) (from UniProt Q9Y2M0 118-177)
binding [4]: binds

GFP-FAN1^1–349 (from UniProt Q9Y2M0 1-349) (domain or fragment)
binding [5]: binds

MSH3 (endogenous, human) (from UniProt P20585 1-1137)
binding [6]: no binding | binding [3]: no binding

MLH1 (endogenous, mouse) (from UniProt Q9JK91 1-760)
binding [7]: binds

FAN1 (endogenous, human) (from UniProt Q9Y2M0 1-1017)
binding [8]: binds

GFP-FAN1, full-length FAN1 (FAN1^FL) (from UniProt Q9Y2M0 1-1017)
binding [5]: binds | binding [9]: no binding
